Data as given in patent US12648574B2 (priority 2019, dated 2026).

Columns and labels:
[1] = test system: Pseudomonas syringae pv. actinidiae IVIA 3700.1.1; type: cell-based
[2] = test system: Pseudomonas syringae pv. tomato DC 3000; type: cell-based
[3] = test system: Pseudomonas syringae pv. actinidiae IVIA 3700.1.1
Description: (§1) The efficacy of the product was evaluated against the following 5 phytopathogenic strains from the CIDSAV collection of quarantine pathogens, from European foci of infection or from Spanish type collections. The tested product comprised eucalyptus oil in sufficient amount to have 20% w/v of 1,8-cineole (measured by HPLC) and was stored at room temperature.
(§2) The inocula were obtained from the pure culture of the actively growing strains after seeding in LB agar medium and incubation at 28° C. for 24 hours. Each bacterial suspension was prepared at a final concentration of 1×10^8 CFU/ml.
(§3) The bactericidal activity of 5 doses of the product was evaluated. For each phytopathogen, different concentrations were tested depending on the results previously obtained in the evaluation of antimicrobial activity (example 2).
(§4) In addition, the effect of the product was compared with that of the antibiotic streptomycin at a concentration of 100 mg/L. An untreated control was also added, where the product was replaced by sterile distilled water. […]
(§5) The multiwell plates were incubated at 28° C. in constant agitation (150 rpm). At 30 minutes (min) and 2 hours (h) of exposure of the bacteria with the products, their survival was analyzed by counting viable in plaque. The colony-forming units (CFUs) were counted at 48 h after incubation at 28° C. determining the survival (CFU/ml) of each phytopathogenic bacterium for each treatment, and were compared with those obtained in the untreated control. Three repetitions were analyzed for each treatment.
(§6) From the survival (CFU/ml) obtained in each treatment, the minimum bactericidal concentration (MBC) and the dose that is lethal for half of a bacterial population (LD50) were determined. […]
(§7) The bactericidal activity of the different concentrations of the product against E. amylovora, X. arboricola pv. pruni, X. axonopodis pv. vesicatoria, P. syringae pv. actinidiae and P. syringae pv. tomato was evaluated by a contact test, where a suspension of each bacterium was incubated with each concentration of the product and samples were taken after 30 and 120 min. […]

[4] = test system: Pseudomonas syringae pv. tomato DC 3000
Description: as §1, §2, §3, §4, §5, §6, §7

Structure (SMILES): [H]/N=C(/N)N[C@H]1[C@H](O)[C@@H](O)[C@H](O[C@@H]2O[C@@H](C)[C@](O)(C=O)[C@H]2O[C@@H]2O[C@@H](CO)[C@H](O)[C@@H](O)[C@@H]2NC)[C@@H](N/C(N)=N\[H])[C@@H]1O [streptomycin]
- bacterial growth [1]: −
- bacterial growth [2]: −
- growth after contact [3]: no growth
- growth after contact [4]: no growth
- growth after contact ([4]; 2 hours): no growth

Like-named read-outs stand apart in the source and are kept apart here.
